Laboratory results reported in paper PMC3903589, “The Receptor for Advanced Glycation End-Products (RAGE) Is Only Present in Mammals, and Belongs to a Family of Cell Adhesion Molecules (CAMs)” (PLoS ONE, 2014).

Target: the molecule itself
Test: SPR; His6-sRAGE immobilised on Ni-NTA chip (1500–2000 RU), sRAGE without His6-tag in the mobile phase; Biacore X; 20 mM HEPES, 150 mM NaCl, 0.005% P20, pH 7.6; 298 K; flow 10 µl/min

B1: Human recombinant sRAGE ([…]) (domain or fragment)
chain: not shown
notes: receptor for advanced glycation endproducts (RAGE), human, soluble extracellular part, […], cloned into pET15b; the copy in the mobile phase had the His6-tag removed by thrombin; GenBank NM001136 is printed for the full-length human RAGE cDNA; also called soluble RAGE; receptor for advanced glycation endproducts; source: E. coli BL21(DE3) Origami B, purified (Ni-Sepharose, Superdex 75; MonoS …)
- Kd: 470 ± 70 nM
